Data as given in PubChem BioAssay AID1240 (Sanford-Burnham Center for Chemical Genomics, 2008).
Among all 50,000 compounds or so, about 800 (1.6%) showed an effect of 50% or more. The list shows a part of the results.

Biological target: Bcl-2-like protein 10 (Homo sapiens) (UniProt Q9HD36)
Assay: Phenotype converters, Bcl-B/TR3 peptide binding displacement, primary biochemical FP (AID 1240);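 further: 0% = Bcl-B with tracer peptide and DMSO and 100% = tracer peptide lacking Bcl-B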
Conditions: GST-Bcl-B / FITC-TR3 peptide fluorescence polarization; stronger effect = higher value; compound at 3.75 mg/L

UniProt Q9HD36, sequence (Q9HD36 whole entry, looked up): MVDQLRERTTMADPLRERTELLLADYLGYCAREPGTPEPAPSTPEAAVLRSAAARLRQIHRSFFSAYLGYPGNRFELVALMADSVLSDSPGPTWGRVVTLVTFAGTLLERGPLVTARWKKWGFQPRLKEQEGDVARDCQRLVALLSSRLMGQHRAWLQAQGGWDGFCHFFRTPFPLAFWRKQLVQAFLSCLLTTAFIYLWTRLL

| SMILES | displacement |
| --- | --- |
| O=C(Cn1c[n+]([N-][N+](=O)[O-])cn1)Nc1ccc([N+](=O)[O-])cc1 | 16.4% |
| O=C(ON1CC1(C(F)(F)F)C(F)(F)F)c1ccccc1 (stereo not drawn) | 3.2% |
| CCCCCCC(C)CCCC1C(=O)NC(=O)NC1=O (stereo not drawn) | 5% |
| O=[N+]([O-])c1ccc(CNCCc2ccc(F)cc2)cc1 | 12.4% |
| Cc1ccc(-n2c(C)nc3ccccc3c2=O)cc1Cl | -11% |
| Nc1ccc(Br)cc1C(=O)c1ccccc1F | 14.7% |
| CC(C)N1CCN(c2nc3ncnc(N)c3[nH]2)CC1 | 6.8% |
| O=C(CN1CCCCC1)NCC(=O)Nc1ccc(Br)cc1C(=O)c1ccccc1 | -17.4% |
| Cc1ccccc1-n1c(CN2C(=O)c3ccccc3C2=O)nc2ccccc2c1=O | -9.6% |
| CCN(CC)CC(=O)Nc1ccc(Cl)cc1C(=O)c1ccccc1 | 19.7% |
| COc1ccccc1-n1c(/C=C\c2ccccc2[N+](=O)[O-])nc2ccccc2c1=O | -1.5% |
| CCOc1cc(C)cc2oc(=O)c3c(c12)CCC3 | -1.5% |
| O=C1/C(=C/c2ccccn2)N2CCC1CC2 | 16.6% |
| COc1cccc(-n2c(Cc3ccccc3)nc3ccccc3c2=O)c1 | 7.6% |
| Cc1ccccc1-n1c(/C=C/c2ccco2)nc2ccccc2c1=O | -50.3% |
| CC(C)(C)c1ccc(OCCOc2cccc(C=C3C(=O)NC(=S)NC3=O)c2)cc1 | -2.5% |
| O=P(Oc1ccccc1)(Oc1ccccc1)OC1CCS(=O)(=O)C1 (stereo not drawn) | 1.6% |
| Cc1ccccc1-n1c(/C=C/c2ccc(Cl)cc2)nc2ccccc2c1=O | -10.4% |
| C=CCN1C(=O)NC(=O)/C(=C/c2ccc(-c3ccc(C(=O)OCC)cc3)o2)C1=O | 36.5% |
| CN1C(=O)NC(=O)/C(=C/c2ccc(-c3ccc([N+](=O)[O-])cc3Br)o2)C1=O | -9.1% |
| Nc1ccc(Oc2ccc(N)cc2)cc1 | -4.7% |
| Cc1ccc(-n2c(/C=C3/C(=O)Nc4ccccc43)nc3ccccc3c2=O)cc1 | -4.8% |
| O=C1NC(=O)C(=Cc2ccc(-c3cc([N+](=O)[O-])ccc3O)o2)C(=O)N1 | 109% |

| SMILES | displacement |
| --- | --- |
| Cc1cc(OC(C)C)c2c3c(c(=O)oc2c1)CCC3 | -1.9% |
| CCOP(=O)(OCC)C(NC(=O)c1ccc(Cl)cc1)C(Cl)(Cl)Cl (stereo not drawn) | 12.4% |
| COc1ccc(N2C(=O)NC(=O)/C(=C/c3cc4c(cc3Cl)OCO4)C2=O)cc1 | 81.5% |
| Cc1ccc(C2c3c(c4ccccc4oc3=O)Oc3c2c(=O)oc2ccccc32)cc1 | 5.1% |
| COc1ccc(-n2c(-c3cccnc3)nc3ccccc3c2=O)cc1 | -10.6% |
| COc1ccccc1CC(=O)N1CCN(C)CC1 | -2.1% |
| CCC(CC)NCc1c[nH]c2ccccc12 | 5.2% |
| O=C(c1ccccc1)c1cc(Cl)ccc1NC(=O)C1COc2ccccc2O1 (stereo not drawn) | -23.8% |
| Cc1ccc(NC(=O)c2nc[nH]c2C(=O)Nc2ccc(Br)cc2C(=O)c2ccccc2)cc1 | 6.6% |
| COc1ccc(-c2nc3ccccc3c(=O)n2-c2cccc(C)n2)cc1 | -3.7% |
| Cc1ccccc1CN1CCN(C(=O)COc2ccc(Cl)cc2)CC1 | 10% |
| CC(C)C12CN3CCN(CC(C3)C1O)C2 (stereo not drawn) | 5.8% |
| COc1ccc(CCNCc2cccnc2)cc1 | 24% |
| COc1ccc(CCNCc2ccc(Cl)cc2)cc1 | 9.7% |
| CCN1C(=O)/C(=C/c2ccc(OC)c3ccccc23)C(=O)NC1=S | 9.5% |
| CN1CCCC1C(O)(c1ccccc1)c1ccccc1 (stereo not drawn) | 9% |
| COc1ccc(CCNCc2ccccc2[N+](=O)[O-])cc1OC | 2.3% |
| CCCCn1c(=O)c(C(=O)Nc2ccc(OC)cc2)c(O)c2ccccc21 | 7.8% |
| COc1ccc(C(c2c(O)c3ccccc3oc2=O)c2c(O)c3ccccc3oc2=O)cc1COc1ccccn1 | 18.3% |
| O=C(COc1ccccc1)Nc1ccc(Cl)cc1C(=O)c1ccccc1 | -1.6% |
| CC12CCC(CC1=O)C(C)(C)N2 (stereo not drawn) | 4.9% |
| O=C1c2ccccc2C(=O)N1Cc1nc2ccccc2c(=O)n1-c1ccncc1 | 2.7% |
| CC(C)c1cccc(C(C)C)c1OCCN1CCCCC1 | 7.8% |

| SMILES | displacement |
| --- | --- |
| CCC(=O)c1ccc(N2CCNCC2)c(F)c1 | -14.1% |
| Oc1ccc(Br)cc1CN1CCN(Cc2cccc(F)c2)CC1 | 4% |
| CCOC(=O)c1c(C)n(CCOC)c2ccc(O)cc12 | -3% |
| CCOc1ccc(-n2c(-c3cccs3)nc3ccccc3c2=O)cc1 | -4.2% |
| Cc1ccc(C(=O)N2CCN(/C(N)=N/[N+](=O)[O-])CC2)cc1[N+](=O)[O-] | 5.9% |
| CC1CCC(NCCc2ccc3c(c2)OCO3)CC1 (stereo not drawn) | -8.4% |
| Cc1ccc(-n2c(-c3ccco3)nc3ccccc3c2=O)c(C)c1 | -7.6% |
| CC(C)N1CCN(Cc2cc(Br)ccc2O)CC1 | 10.7% |
| O=C1NC(=O)C(=Cc2ccc(-c3ccc([N+](=O)[O-])cc3Cl)o2)C(=O)N1 | 66.8% |
| C=CCN1C(=O)/C(=C\c2cc(Cl)c(O)c(OC)c2)C(=O)NC1=S | 3% |
| CCOC(=O)c1c(C)n(Cc2ccccc2Cl)c2ccc(O)cc12 | 14.6% |
| O=C1Nc2ccccc2C1=Cc1nc2ccccc2c(=O)n1-c1ccc(O)cc1 | 6.5% |
| O=[N+]([O-])N=C1NCN(c2cccc([N+](=O)[O-])c2)CN1 | 4.2% |
| O=[N+]([O-])c1ccc(N2CCCC2)c(F)c1Br | -0.5% |
| COc1ccc(Br)cc1CN1CCN(C(=O)COc2ccc3ccccc3c2)CC1 | 11.6% |
| CCOc1ccccc1CN(CCc1ccc2c(c1)OCO2)Cc1ccccc1OC | -9.5% |
| O=C(Nc1ccc(Cl)cc1C(=O)c1ccccc1)c1ccc(S(=O)(=O)N2CCOCC2)cc1 | -12.7% |
| CCOc1cc(C=C2C(=O)NC(=O)NC2=O)cc(Br)c1OCCOc1ccccc1C | 8.7% |
| O=C(N/N=C1/CN2CCC1CC2)c1cc2ccccc2cc1O | -38.2% |
| COc1cccc(C(c2c(O)c3ccccc3oc2=O)c2c(O)c3ccccc3oc2=O)c1 | 13.2% |
| Cc1cccc(-n2c(CN3C(=O)c4ccccc4C3=O)nc3ccccc3c2=O)c1 | 1.3% |
| COc1cc(CN2CCN(C(C)C)CC2)cc(OC)c1OC | -7.2% |
| CC12CCC3C(CC=C4CC(O)CCC43C)C1C/C(=C\c1ccc([N+](=O)[O-])cc1)C2=O (stereo not drawn) | 8.2% |

| SMILES | displacement |
| --- | --- |
| Cc1ccccc1NC1=NCC(C)S1 (stereo not drawn) | -0.3% |
| Cc1cc(C)cc(N2C(=O)NC(=O)/C(=C\C=C\c3ccccc3)C2=O)c1 | 42.9% |
| COc1ccccc1OCC(=O)N1CCN(C)CC1 | 15.9% |
| OC1C2CCCC1C(N1CCCCC1)CC2 (stereo not drawn) | 12.9% |
| CC(C)c1ccc(N2C(=O)NC(=O)/C(=C/C=C/c3ccco3)C2=O)cc1 | 8.5% |
| CC(Cc1ccccc1)NC(=O)/C=C/c1ccccc1 (stereo not drawn) | -10% |
| O=C(Nc1cccc2ccccc12)NC1CN2CCC1CC2 (stereo not drawn) | 13.2% |
| CCc1ccc(CN2CCN(C(=O)COc3ccc(Cl)cc3)CC2)cc1 | 7.7% |
| Cn1c(O)c(C(c2ccncc2)c2c(O)n(C)c(=S)n(C)c2=O)c(=O)n(C)c1=S | 11.7% |
| Cc1ccc(C(=O)Nc2ccc(N/C(N)=N/[N+](=O)[O-])cc2)cc1 | 8.7% |
| Cc1cc(O)c2c3c(c(=O)oc2c1)CCCC3 | 13% |
| Cc1cccc(N2C(=O)NC(=O)/C(=C/c3ccc(-c4ccc([N+](=O)[O-])cc4C)o3)C2=O)c1 | 76.7% |
| CC(NC1CCCCC1)C(O)C12CC3CC(CC(C3)C1)C2 (stereo not drawn) | -12.1% |
| Cc1cccc(-n2c(/C=C\c3ccc(Br)cc3)nc3ccccc3c2=O)c1 | 18.6% |
| COc1ccc(OC)c(CNCCc2ccc([N+](=O)[O-])cc2)c1 | 16.4% |
| COc1cc(/C=C/[N+](=O)[O-])ccc1OC(C)=O | 5.3% |
| CCCCn1c(=O)c(C(=O)Nc2ncccc2O)c(O)c2ccccc21 | 2.6% |
| O=C1NC(=O)C(=Cc2cccc(OCc3ccccc3)c2)C(=O)N1 | 6.9% |
| CC(C)c1cccc(C(C)C)c1OCCn1ccnc1 | -8.4% |
| COc1cccc(/C=C2/C(=O)NC(=O)N(c3cccc(C)c3)C2=O)c1O | 3.1% |
| COc1ccccc1OCCn1cc(C=C2C(=O)NC(=O)NC2=O)c2ccccc21 | 38.7% |
| O=C(CN1CCOCC1)Nc1ccc(Cl)cc1C(=O)c1ccccc1 | 0.4% |
| CCC1(c2ccccc2)C(=O)NC(=O)N(C(=O)c2ccccc2Cl)C1=O (stereo not drawn) | 3.9% |

| SMILES | displacement |
| --- | --- |
| CCCn1c(C)c(C(=O)OCC)c2cc(O)ccc21 | 0.8% |
| Cc1cccc(C(=O)Nc2ccc(Cl)cc2C(=O)c2ccccc2)c1 | -12.2% |
| COCCOC(=O)C1CN1C(C)C(=O)OC (stereo not drawn) | -8.9% |
| Fc1ccc(CNCCc2c[nH]c3ccccc23)cc1 | 10.4% |
| O=C1/C(=C/c2ccc(O)cc2)N2CCC1CC2 | 13.1% |
| CN1C(=O)C(=Cc2cccn2-c2cccc([N+](=O)[O-])c2)C(=O)N(C)C1=O | 27.3% |
| Cc1c(C)[n+](=O)c2cc(N3CCN(C)CC3)c(Cl)cc2n1[O-] | 5.3% |
| O=C1CC(=O)N(c2ccc(Cl)c(Cl)c2)C(=S)N1 | 0.8% |
| CCCCCn1c(=O)c(C(=O)Nc2ccc(C)cc2C)c(O)c2ccccc21 | -3.6% |
| COc1ccc(O)c(CN2CCN(Cc3ccccc3Br)CC2)c1 | -5.1% |
| Cc1ccccc1-n1c(/C=C/c2ccc(Br)cc2)nc2ccccc2c1=O | -2.8% |
| COc1cc(CNCCc2ccc(Cl)cc2)cc(OC)c1OC | 12% |
| CCN1CCC2(CC1)CC(C)c1cccc(C)c1N2 (stereo not drawn) | 12.7% |
| COc1ccc(N2C(=O)NC(=O)/C(=C/c3ccc(SC)cc3)C2=O)cc1 | -9.4% |
| O=C1NC(=O)C(=Cc2ccccc2)C(=O)N1 | -4.2% |
| CC(C)(NO)C(=O)c1ccc(F)cc1 | 13% |
| O=C1NC(=O)N(c2ccc(Cl)cc2)C(=O)/C1=C/c1ccccc1 | 4.7% |
| CCOc1ccc(NC(=S)NC2CN3CCC2CC3)cc1 (stereo not drawn) | 18.6% |
| COc1cc(/C=C\c2nc3ccccc3c(=O)n2-c2ccc(O)cc2)ccc1O | -24.7% |
| CC(C)N1CCN(Cc2ccc(Br)cc2)CC1 | -0.5% |
| O=C(N1CCN(c2ccccc2)CC1)C(O)(c1ccccc1)c1ccccc1 | -0.4% |
